Over roughly 33,000 sequences, “E-score (-0.5 to 0.5)” has its median near -0.035; the highest 2% begin near 0.34. The list shows a part of the results.
Molecular target: T1, Mot3 (UniProt P54785)
T1 sequence: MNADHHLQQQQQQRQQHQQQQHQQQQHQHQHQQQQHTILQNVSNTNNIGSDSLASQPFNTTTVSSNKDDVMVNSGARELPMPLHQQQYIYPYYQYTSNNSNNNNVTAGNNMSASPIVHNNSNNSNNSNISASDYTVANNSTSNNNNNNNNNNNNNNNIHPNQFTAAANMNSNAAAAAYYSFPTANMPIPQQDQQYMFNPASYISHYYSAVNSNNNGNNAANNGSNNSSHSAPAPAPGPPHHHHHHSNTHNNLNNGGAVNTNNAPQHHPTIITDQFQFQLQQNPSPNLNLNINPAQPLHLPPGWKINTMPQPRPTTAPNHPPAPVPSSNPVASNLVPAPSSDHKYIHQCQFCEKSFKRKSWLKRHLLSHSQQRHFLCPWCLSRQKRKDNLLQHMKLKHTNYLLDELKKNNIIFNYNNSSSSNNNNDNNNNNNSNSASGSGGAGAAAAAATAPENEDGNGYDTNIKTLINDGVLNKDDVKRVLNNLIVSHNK
Experiment: PBM E-score (8-mer binding enrichment) (E-score (-0.5 to 0.5)); higher = stronger / more preferred TF binding; most listed sequences are background and not binding sites
Conditions: protein concentration: 200 nM; construct: GST-full length
In short: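 PURExpress in vitro transcription/translation supplied GST-tagged yeast transcription factors, either full-length or DNA-binding domain. Applied at about 100-200 nM to universal all-10-mer Agilent arrays double-stranded by primer extension, the bound protein was detected with fluorescent anti-GST. E-scores, modified Wilcoxon-Mann-Whitney statistics, were given by the Universal PBM Analysis Suite to ungapped eight-base words pooled with their reverse complements after masliner normalisation.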

Sequence | PBM E-score
TAGCGAAA | -0.0801
ACAGCTGT | -0.0347
CCCCACAC | -0.354
CCCCTTTC | -0.0457
ACATAGAT | 0.21
CGCGGCGC | -0.193
ATCGCTGA | -0.182
CAAGAGAC | -0.0444
GGAGAAAC | -0.149
TCACCGGA | -0.13
ATGTGATG | 0.0138
AAGGAGGG | -0.113
CTACCTCC | -0.00212
ACACTGCG | -0.13
CAAACGGA | -0.171
AAAAAGGC | 0.29
ACTGCCCT | -0.227
ACCCATAC | -0.088
AAAGTGCA | -0.0801
AACTGAGT | 0.00615
CCTCCTCA | -0.171
AGCCCAGG | -0.0618
TCCAGACA | -0.191
GACTTGTA | 0.177
GTAACTCA | -0.145

Sequence | PBM E-score
GAGACGCC | -0.289
AATGGTAT | -0.0595
AGACACGC | 0.0942
ACTTAGAA | -0.0888
GAGTCCCC | -0.341
ATCCAATC | -0.238
ACAGGAGT | 0.126
AGCACGGC | 0.161
TACGCTGA | 0.189
ATTGACGA | 0.0928
ATGCAAAC | -0.0572
TTATGGAA | 0.0164
GTCAGAGA | -0.242
CCCATAAA | -0.103
CAGCCTGA | -0.209
ACTTTTAC | 0.235
ATCCGGAG | -0.0342
CGCCTGTA | 0.213
AATAAATG | 0.0869
AAACAATG | 0.191
GTGGATGA | -0.0229
CCCACCGG | -0.388
ACATGCAT | 0.295
AGAAGTCG | -0.102
CATGTCTA | 0.223

Sequence | PBM E-score
GTGGGCTA | -0.25
AATGGTGA | 0.0586
GCCATAGA | -0.279
AGAAATAA | 0.0617
AGACTTAA | 0.053
CGGGCTGA | -0.22
CGGCGAAA | -0.109
AATCTTAA | 0.119
ACCCCCGC | -0.214
AGCAGGAT | -0.0589
ATAATAAT | 0.121
ACATTCGA | 0.0576
CGCTCAAC | -0.0198
GGGATATA | -0.187
AGCCGGGC | -0.248
GTTGGGAA | -0.105
GAACAGAC | 0.134
TCCATCAA | 0.107
GGAGGTGA | -0.0735
AAACCTTG | 0.114
ATAACTAA | 0.152
CACGTCAG | 0.0313
ATGTTTAC | 0.374
CGTAGGAG | -0.0892
ACTGGTCC | -0.277

Sequence | PBM E-score
GCGCAGAA | -0.114
AAGTATCT | -0.00241
GGCTGCAC | -0.101
GGCATTAA | 0.103
AGTCAACC | -0.188
GATGCTTA | -0.195
ATTCGATC | 0.074
GTGGGTAA | -0.0112
ACTGAAGT | -0.0409
GACAGGCA | 0.483
GGTATAGA | 0.0233
AAAGTATT | -0.0686
CGGTGTAA | 0.237
CACGCGCC | 0.181
GAGCAGGC | 0.23
ATCATAAG | 0.00281
TAGGCCAA | -0.0777
AGCCCCGA | -0.21
AGATCCGC | -0.248
CAGCACAG | 0.126
GTGTTAGA | 0.14
GCGACTGA | -0.137
AGGAGTCG | -0.0368
CAACGATA | 0.128
ATGCCAAC | 0.0877

Sequence | PBM E-score
AAATCTAG | 0.0254
CACAGCGG | -0.13
AATAGGGA | -0.0751
GAACAATA | 0.212
ATTAGTGC | -0.0216
TCAGGCGA | -0.0408
GCTGGCAA | -0.143
CGAACCTA | -0.0603
ACTTGTTA | 0.272
ACCCGCAA | -0.0644
CCATGCCC | -0.345
ATCTTCTC | 0.0285
CTGCGCAG | -0.116
CCTGGATC | -0.157
CTCACGCA | 0.103
CTGGGCCA | -0.275
ATTATAAC | 0.197
GTGAGATA | -0.0887
CCTGCCCG | 0.0838
AGAATGTG | -0.196
CGTACAAA | 0.139
ATCCGAGC | -0.242
CCACGAAG | -0.0785
CCGTGCCG | -0.121
CTTTACCA | 0.0468

Sequence | PBM E-score
AGACTAAA | -0.163
CACGCCAG | 0.0478
AAATTTGT | 0.108
AGGAAGAT | -0.271
GAGAAGAC | -0.042
CCGTCGCG | -0.128
CAGAAGAG | -0.269
ATTCCGTG | 0.0245
ACTATCTA | 0.219
CAGCCTCG | -0.019
GAGCAAGA | -0.0604
CCGAGAGG | -0.23
GTTCGGGA | 0.059
GGTGTTTA | 0.0636
CACAACGG | 0.0565
CATGGCCG | 0.158
TGCACACA | 0.0915
CTTCGATC | -0.202
CCTTGAGC | -0.0057
GATCCGTA | -0.383
ATGGAAGG | 0.0524
AGATTTAC | 0.258
ACTGTCAT | -0.0164
AAGCCGTC | -0.285
GAACCTGC | 0.178

Sequence | PBM E-score
ATGGTACC | 0.0759
AAGAACAA | 0.287
AAACAGGC | 0.301
GGAGAGAA | -0.148
GTTCAAAC | 0.0214
ATGAAGAG | -0.174
AACAGTCA | 0.0177
ACAGTCAT | -0.0548
ACCGCTCC | -0.258
CGGTAACC | 0.0547
AGTGGCAC | -0.263
AAGTGAGG | -0.165
CTTCGAAA | 0.0268
ATGACTCA | -0.0353
ATCTACGC | 0.291
CAAGAATA | 0.0212
CATACTGC | -0.147
CCCTACCG | -0.203
CAGGCGGG | -0.296
TAAAAGAA | 0.138
TGGTAGAA | -0.0378
TCGAAGCA | -0.0828

— the supplement of paper PMC3334620
